The whole screen tested about 48,000 compounds, of which about 450 (0.94%) were called active. About 19% were inconclusive and are not listed. Calls come from the whole dose curve; as a rule, active = well fitted inhibition curve with a large enough effect; inconclusive = small, poorly fitted or top-dose-only effect; inactive = no such curve, though single readings can be large or run the other way. The list shows a part of the results.
Assay: Primary qHTS for Identification of Small Molecule Inhibitors of Huntingtin Promoter Activity; note: nearly all actives have a fitted effect of over 50% in size
Settings: HEK293 HTT promoter firefly luciferase reporter (activity 0% = vehicle and -100% = no light), 24 h; series mostly up to 57.5 µM; activity change, negative = inhibition: at the top concentration
Summary of the method: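 HEK293 cells carrying firefly luciferase reporters were seeded at 2,500 per well in Opti-MEM and cultured for 24 h. They were then treated with compounds at up to 57.5 uM final for 24 h at 37 degrees C before Dual-Glo luminescence readout.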

Activity change, negative = inhibition, inactive:
Cc1ccc(NC(=O)C(C)n2nnc3sc4c(c3c2=O)CCCC4)cc1Cl (configuration not stated) 12.1%
Cc1c(Cl)cccc1NC(=O)c1ncoc1-c1ccco1 24.6%
CCc1ccc(NC(=O)CSc2nc3ccccc3c(=O)n2CCNC(C)=O)cc1 16.2%
Cc1ccc(C(C)(O)c2nc3ccccc3s2)c(C)c1 (configuration not stated) -7.92%
CCOC(=O)c1c(C)[nH]c(CCC(=O)NCc2ccccc2Cl)c1C -28.3%
COc1ccccc1NC(=O)CCN1CCCCC1 -9.21%
CCOc1ccc(OCC)c(NC(=O)C2CCN(c3nnc(-n4cccc4)s3)CC2)c1 -10%
Cc1nc(-c2ccccc2)sc1CCNC(=O)C(=O)Nc1ccc2c(c1)OCO2 -6.54%
COc1cccc(OCCSc2nc(C)c(Cc3ccccc3)c(=O)[nH]2)c1 -18.4%
Cc1ccc(N(C)C(=O)C2CCN(S(=O)(=O)c3c(C)noc3/C=C/c3c(C)cc(C)cc3C)CC2)cc1 -15.2%
O=P(O)(O)OCC(O)CO (configuration not stated) -0.688%
Cc1cccc(N2CCN(S(=O)(=O)c3ccc4[nH]c5c(c4c3)CCCCC5)CC2)c1C 7.91%
Cc1cccc(C(=O)NCC(=O)OCc2cc(=O)n3nc(C4CCCCC4)sc3n2)c1 -16.1%
COc1ccccc1C(=O)Nc1cc2c(cc1N1CCCC1)n(C)c(=O)c(=O)n2C -6.93%
COc1cccc(NC(=O)C2=C(C)C(=O)OC23CCN(C(C)=O)CC3)c1 -1.01%
CCN(CC)C(=O)Cn1nnc2sc(-c3ccccc3)cc2c1=O 0%
COc1cc2c(cc1OC)C(COc1ccc3c(C)cc(=O)oc3c1)N(C(=O)c1cc(Cl)ccc1OC)CC2 (configuration not stated) -6.27%
Cc1ccc(CN2CCSc3ccc(C(=O)NCC(C)c4ccccc4)cc32)cc1 (configuration not stated) 10.3%
CCCOc1ccc(CNC(=O)c2ccc(-n3c(C)cc4c3CCC(C)C4)cc2)cc1 (configuration not stated) -10.5%
CCN(C(=O)CSc1nc2ccccc2[nH]1)c1ccccc1 -12.4%
Cc1ccc(NC(=O)Cn2ccn(-c3ccccc3)c(=O)c2=O)cc1 -5.69%
Cc1ccc(Cn2cc(S(=O)(=O)c3cccc(Cl)c3)c(=O)c3cc(F)c(N4CCOCC4)cc32)cc1 -7.23%
CCOc1ccc(C2NC(=O)c3c(COC)cc(C)nc3N2Cc2ccccc2)cc1OC (configuration not stated) -5.16%
Cc1ccc(C)c(N2CCN(C(=O)c3ccc4c(c3)N(Cc3ccc(F)cc3)C(=O)c3ccccc3S4=O)CC2)c1 (configuration not stated) -5.01%
CC1CCC(Nc2nc3c(-c4cccc(C(F)(F)F)c4)nnn3c3ccccc23)CC1 (configuration not stated) -14.4%
COc1cc(OC)c(NC(=O)CCc2c(C)nc3cc(-c4ccccc4OC)nn3c2C)cc1Cl -32.1%
CC(C)OC(=O)c1c(NC(=O)C2c3ccccc3Oc3ccccc32)sc2c1CCCC2 -14.5%
COc1ccccc1-c1noc(CCC(=O)Nc2ccc(C)cc2C)n1 -11.4%
Cc1ccc(NC(=O)C2CCCN(S(=O)(=O)c3cn(C(C)C)cn3)C2)c(C)c1 (configuration not stated) -17%
CCc1ccc2oc(C(=O)Nc3cc(C)ccc3C)cc(=O)c2c1 5.73% [at 11.5 µM]
CC(C)c1nn2c(=O)cc(COC(=O)c3ccccc3NC(=O)C3CCCCC3)nc2s1 -19%
CC1Cc2ccccc2N1C(=O)CSc1nnc(-c2ccccc2Cl)o1 (configuration not stated) -1.19%
CN(C)c1ccc(CNC(=O)c2ccccc2NC(=O)c2nsc3ccccc23)cc1 21.1%
CCCc1cc(=O)n2[nH]c(NCc3ccc(CC)cc3)nc2n1 -21.1%
O=C1SC(Nc2ccc(Cl)cc2)C(=O)N1Cc1ccccc1 (configuration not stated) -16.8%
Cc1ccc2oc(C(=O)Nc3ccc(S(=O)(=O)Nc4onc(C)c4C)cc3)cc(=O)c2c1 -6.22% [at 11.5 µM]
O=C(CSc1ncc(S(=O)(=O)c2ccc(Cl)cc2)c(=O)[nH]1)Nc1ccc2c(c1)OCCO2 -3.39%
COc1cccc(C(=O)NCC(=O)OCc2cc(=O)n3nc(C)sc3n2)c1 10.9%
CCCCNC(=O)C1=CC(c2ccc3c(c2)OCO3)=NS(=O)(=O)N1C -11.9%
CCCCCC(N)=O 15.5%
C[C@H]1C[C@H]2[C@@H]3CCC4=CC(=O)C=C[C@]4(C)[C@@]3(Cl)[C@@H](O)C[C@]2(C)[C@@]1(O)C(=O)CO -9.39%
CCC(Sc1nc2ccncc2[nH]1)C(=O)Nc1ccc(F)cc1 (configuration not stated) -34.3%
COc1cccc(-n2c(=O)c3sc4ccccc4c3n(CC(=O)Nc3ccccc3OC)c2=O)c1 -18.4%
Cc1ccc(-n2nc(CO)c(C(=O)NCCc3ccccc3)n2)cc1 -8.26%
O=S(=O)(c1ccccc1)c1nnn2c1nc(Nc1ccccc1)c1cc(Cl)ccc12 -15.2%
Cc1ccc(Cl)cc1N1CCN(C(=O)Cn2ncc3c([nH]c4ccccc43)c2=O)CC1 7.6%
Cc1cc(C)cc(NC(=O)C(NS(=O)(=O)c2cccc3nsnc23)c2ccccc2)c1 (configuration not stated) -29.7%
O=C(CSc1nnc(-c2ccc(Cl)cc2)o1)N1CCc2ccccc21 2.93%
Cc1ccc(Cn2cnc3c(oc4ccccc43)c2=O)cc1 25.4%
COc1ccc(CCNC(=O)CCc2cn(Cc3ccc(C)cc3)c3ccccc23)cc1OC -27.2%
CCCCn1c2ccccc2c2nnc(SCC(=O)Nc3ccc(NC(C)=O)cc3)nc21 -31.5%
COc1cc2nc(N3CCN(C(=O)C4CCCO4)CC3)nc(N)c2cc1OC (configuration not stated)
O=C(Nc1onc2c1CCCC2)c1ccc(Cl)cc1 61.8%
CCc1nc2nc(C)cc(Nc3ccc(Br)cc3F)n2n1 -15.4%
Cc1ccccc1NC(=O)c1c2c(nc3ccccc13)C(=O)N(C1CCCCC1)C2 -4.77%
COc1ccccc1-c1cc(C(F)(F)F)nc(S(=O)(=O)CCCC(=O)Nc2cc(C)ccc2O)n1 33.7%
Cc1ccc2c(=O)c(C(=O)c3ccc(F)cc3)cn(CC(=O)NC3CCCCC3)c2n1 6.09%
CC(=O)Nc1ccc(S(=O)(=O)Nc2ccc(-c3cn4c(C)csc4n3)cc2)cc1 -35.4%
COc1ccc2c(Sc3ccccc3)c(C(=O)NCc3ccc(OC(C)C)cc3)[nH]c2c1 -9.57%
CN1CCN(c2cccc(Nc3nc4c(-c5ccc(S(C)(=O)=O)cc5)cccn4n3)c2)CC1 2.12%
COc1ccc(-c2nc3ccc(NS(=O)(=O)c4ccccc4)cc3o2)cc1 -5.45%
CCOc1ccc(-n2c(SCC(=O)NCc3ccco3)nc3c([nH]c4ccccc43)c2=O)cc1 -27%
Cc1ccc(-n2c3nc(=O)[nH]c(=O)c-3cc3c(Cl)cccc32)cc1 3.43%
Cc1ccc(NC(=O)c2sc(-n3nc(C)c(Cc4ccc(Cl)cc4)c3C)nc2C)cc1 5.61%
Cc1ccc(Cn2ccnc2SCC(=O)Nc2ccc3c(c2)OCO3)cc1 -8.78%
CCN(Cc1ccccc1)C(=O)Cn1c(=O)n(-c2ccc(OC)cc2OC)c(=O)c2c(C)c(C)sc21 -2.61%
CCOc1ccc(NC(=O)c2c(NC(=O)Cc3ccccc3)sc3c2CCCC3)cc1 -16.1%
COc1ccc(Cl)cc1NC(=O)Cn1c(=O)n(Cc2ccco2)c(=O)c2ccc(C(=O)NC3CCCC3)cc21 -13.2%
CCOc1ccc(CNC(=O)c2ccc(-c3nc(CSc4ccc(C)cc4)c(C)o3)cc2)cc1 -25.2%
Cc1c(CC(=O)N2CCCCC2)c(=O)oc2c(C)c3occ(C(C)(C)C)c3cc12 -6.12%
CCCCOc1ccc(C(C)NC(=O)c2cccc(Nc3nc4ccccc4n4nnnc34)c2)cc1 (configuration not stated) -4.22%
CCOc1ccc(CCNC(=O)CSc2n[nH]c(-c3ccccc3)n2)cc1OCC 1.48%
Cc1ccc(CN2CCSc3ccc(C(=O)NCCc4ccccc4)cc32)cc1 14.1%
COc1ccc(Cl)cc1NC(=O)C1CCN(c2nnc(C)c3c(C)n(-c4ccccc4)nc23)CC1 -10.3%
CN(C)C=NC(=O)c1cc2c(n(-c3ccccc3)c1=O)CC(C)(C)CC2=O -17.5%
Oc1ccccc1C=NCc1ccccc1 -0.469%
COc1cccc(CSc2nc3n(n2)C(c2cccc(F)c2)C(C(=O)Nc2ccccc2C)=C(C)N3)c1 (configuration not stated) 6.13%
CN(C)c1cc2c(cc1NS(=O)(=O)c1ccccc1)n(C)c(=O)n2C -9.51%
COc1ccc(CN(C(=O)Nc2cccc(Cl)c2)c2ccccn2)cc1OC -8.26%
COCCNC(=O)CCC(=O)N1Cc2cccc(OC)c2Oc2ncccc21 -12.7%
COc1ccc(CNC(=O)CCCN2C(=O)CSc3c2c(C)nn3-c2ccccc2)c(OC)c1 -23.1%
COc1ccc(Cl)cc1NC(=O)CCS(=O)(=O)c1cccc2nonc12 -16.1%
Cc1ccc(NC(=O)C(=O)NCC(c2cccnc2)N2CCOCC2)cc1Cl (configuration not stated) -30.8%
CCc1ccc(NC(=O)Cn2ccn(Cc3ccccc3OC)c(=O)c2=O)cc1 -30.9%
Cc1ccc(-n2nc(C)c3c(C)cc(=O)n(CC(=O)N4CCCc5ccccc54)c32)cc1 0%
CCn1cc(S(=O)(=O)c2cccc(Cl)c2)c(=O)c2cc(F)c(N3CCC(C)CC3)cc21 -10.4%
COc1cccc(-c2ccc3c(N)c(C(=O)c4ccc(Br)cc4)sc3n2)c1 -25.5%
O=C(Cc1ccc(Cl)cc1)Nc1nnc2n1CCS2 2.88%
COc1ccc(C)cc1NC(=O)CCc1c(C)nn(-c2ccc(N3CCOCC3)nn2)c1C -15.5%
O=C(COCc1cc(-c2cccs2)on1)NCc1ccc(Cl)cc1 -29.1%
COc1cccc(CNC(=O)Cc2csc3ccccc23)c1OC 16.4%
Cc1ccc(C2=Nc3ccc(Cl)cc3OC2)cc1 17.8%
COc1ccc(NC(=O)C(=O)NCC2(c3ccc(OC)c(OC)c3)CCCC2)cc1 -19.8%
COc1ccc(NC(=O)CCCSc2nc(-c3ccco3)cc(C(F)(F)F)n2)c(OC)c1 -25.8%
CCOc1ccc(N(CC)C(=O)C2CCN(S(=O)(=O)c3cccc4nonc34)CC2)cc1 2.74%
COc1cc(NC(=O)Cn2nnc(-c3ccc(C(F)(F)F)cc3)n2)c(C(=O)O)cc1OC -2.27%
COc1ccc(CCC(=O)NC2CC(=O)N(c3cccc(F)c3)C2)cc1 (configuration not stated) 6.95%
